In PubChem BioAssay AID463173 (ICCB-Longwood Screening Facility, Harvard Medical School, 2010):
The whole screen tested about 52,000 compounds, of which about 1,700 (3.3%) were called active. Cut-off read from the data, not from the text of the source: active = survival mostly below about 52% (no sharp cut-off); inactive = mostly above about 56%. The list shows a part of the results.

These compounds were tested on Wild type (assay: S. aureus survival, RN4220 and DeltatarO strains – OD600, teichoic acid synthesis inhibitors, primary screen (AID 463173)). Conditions: S. aureus RN4220 wild type/DeltatarO growth, OD600, 18 h, hits give low values, screened at 18.75 µg/mL (by protocol).
In the case of `CCN(CC)c1nc(Nc2ccccc2)nc(Oc2ccc(=O)[nH]n2)n1`, the survival is reported as inactive: 113%.
`CCC(C(=O)NCCc1ccc(SC)cc1)n1nc(C)c2sc3ccccc3c2c1=O` (configuration not stated) was tested, and the survival was inactive: 81%.
With `COc1ccc(-c2[nH]ncc2C(=O)NCc2ccccc2C)cc1` the survival was inactive: 72%.
With `COc1ccc(OCC(=O)OCc2cc(=O)n3nc(C4CCCCC4)sc3n2)cc1` the survival was inactive: 71%.
In the case of `CC(=O)Nc1cccc(NC(=O)C(=O)NCCc2sc(-c3ccccc3)nc2C)c1`, the survival is reported as inactive: 81%.
In the case of `CCN(CC)CCNC(=O)c1cn(CC)c2ccc(S(=O)(=O)N3CCOCC3)cc2c1=O`, the survival is reported as inactive: 86%.
In the case of `Cc1ccc(CCNC(=O)Cn2nc(-c3ccc(C)cc3)ccc2=O)cc1`, the survival is reported as active: -3%.
`Cc1ccc(C)c(NC(=O)CSc2ncc(S(=O)(=O)c3ccc(C)c(Cl)c3)c(=O)[nH]2)c1` was tested, and the survival was inactive: 65%.
For `CSc1cccc(Nc2nc3c(S(=O)(=O)c4ccccc4)nnn3c3ccc(Cl)cc23)c1`, the survival was inactive: 84%.
With `CNC(=S)N1CCN(C(=O)/C(=C/c2ccc(F)cc2)NC(C)=O)CC1` the survival was inactive: 90%.
With `O=C(Cn1ncc2ccc(Cl)cc21)NCc1ccc(F)cc1` the survival was inactive: 116%.
With `O=C(c1ccc2c(c1)N(Cc1ccc(F)cc1)C(=O)c1ccccc1S2=O)N1CCC(Cc2ccccc2)CC1` (configuration not stated) the survival was inactive: 92%.
For `COc1ccccc1NC(=O)c1cccc(S(=O)(=O)N2CCCCCC2)c1`, the survival was inactive: 69%.
For `COc1ccc(Cn2c(SCc3ccc(C(=O)NC(C)C)cc3)nc3cccnc32)cc1`, the survival was inactive: 73%.
With `CCc1ccc(CNC(=O)c2ccc(NC(=O)N3CCCCc4ccccc43)cc2)cc1` the survival was inactive: 84%.
With `O=c1ccnc(NCCc2ccccc2)[nH]1` the survival was inactive: 113%.
With `Cc1ccc(C(=O)Nc2cccc(C(=O)O)c2)cc1S(=O)(=O)N1CCCC1` the survival was inactive: 90%.
In the case of `Cc1c(Cl)cccc1NC(=O)Nc1nnc(N2CCCCCC2)s1`, the survival is reported as inactive: 86%.
For `C=C(C)CSc1nc2sc3c(c2c(=O)n1-c1ccccc1)CC(C(C)C)OC3` (configuration not stated), the survival was inactive: 72%.
In the case of `NC(=O)CSc1nc2cc(Cl)ccc2s1`, the survival is reported as inactive: 105%.
With `CCC1CN(C(=O)N2CCC(C(=O)NCc3cccc(C)c3)CC2)c2ccccc2O1` (configuration not stated) the survival was inactive: 86%.
In the case of `CCCCC(CC)CNC(=O)CN1C(=O)CSc2ccc(S(=O)(=O)N3CCOCC3)cc21` (configuration not stated), the survival is reported as inactive: 72%.
For `O=C(Cn1c(=O)nc(-c2ccccc2F)c2cc(Cl)ccc21)N1CCN(c2ccccc2F)CC1`, the survival was inactive: 71%.
`COc1ccc(CNC(=O)c2c3c(nc4ccccc24)C(=O)N(C2CCCCC2)C3)c(OC)c1` was tested, and the survival was inactive: 63%.
With `COC(=O)c1scc(-c2ccc(C)cc2)c1S(=O)(=O)Nc1cc(OC)c(OC)c(OC)c1` the survival was inactive: 80%.
With `CCOc1ccccc1N(CC)C(=O)c1cc2c(=O)[nH]c3ccc(C)cc3c2s1` the survival was inactive: 98%.
`Cc1ccc(N2C(=O)C3CN4CCCN4C3C2=O)cc1` (configuration not stated) was tested, and the survival was inactive: 99%.
With `Cc1ccc(NC(=O)/C(C#N)=C/c2ccc(C(C)C)cc2)cc1C` the survival was inactive: 76%.
With `Clc1cccc(-n2ncc3c(N4CCCCC4)ncnc32)c1` the survival was inactive: 128%.
`O=C(Cn1cc(S(=O)(=O)Cc2cccc(Cl)c2)c2ccccc21)NCCc1ccccc1` was tested, and the survival was inactive: 71%.
`CC(=O)Nc1nonc1-c1nnc(SCC(=O)N(C)c2ccccc2)n1C` was tested, and the survival was inactive: 83%.
In the case of `COc1cc2c3c(c1OC)C1(C=CC(=NNC(N)=O)C=C1)CC3N(C(C)=O)CC2` (configuration not stated), the survival is reported as inactive: 99%.
`CCN(c1cccc(C)c1)S(=O)(=O)c1ccc2[nH]cc(C(=O)NCCCOC)c(=O)c2c1` was tested, and the survival was inactive: 76%.
`O=C(O)C1C2C=CC(C2)C1C(=O)NCc1cccs1` (configuration not stated) was tested, and the survival was inactive: 113%.
With `COc1ccc(CNC(=O)C(=O)Nc2ccc(OC)cc2OC)cc1` the survival was inactive: 80%.
For `CCOC(=O)c1cnc2c(C)c(Cl)ccc2c1NCCc1ccccc1`, the survival was active: -3%.
`CCOc1ccc(CCNC(=O)CN2C(=O)COc3ccc(S(=O)(=O)N4CCCC4)cc32)cc1` was tested, and the survival was inactive: 90%.
With `Cc1ccc(C(C)C)c(OCC(O)CN2CCN(c3ccccc3F)CC2)c1` (configuration not stated) the survival was active: -3%.
With `Cc1ccc(NC(=O)CCC(=O)N2Cc3ccccc3Oc3ncccc32)c(C)c1` the survival was inactive: 80%.
`CC(C)c1ccc(C2NC(=O)c3n[nH]c(-c4cccs4)c32)cc1` (configuration not stated) was tested, and the survival was inactive: 89%.
`COc1ccc(Cl)cc1S(=O)(=O)NCc1ccc2c(c1)CCN2C(=O)c1cccc(C)c1` was tested, and the survival was inactive: 128%.
`CCn1c(=N)c(C(=O)NCc2ccccc2)cc2c(=O)n3cccc(C)c3nc21` was tested, and the survival was inactive: 74%.
With `COc1ccc(-n2nnnc2C2CCN(S(=O)(=O)c3ccc(NC(C)=O)cc3)CC2)cc1` the survival was inactive: 85%.
`Cc1cccc(-c2nc(C)c(CCNC(=O)C(=O)Nc3ccccc3C#N)s2)c1` was tested, and the survival was inactive: 100%.
For `COc1ccc(NC(=O)CCc2c(C)nn(-c3ccc(N4CCCCC4)nn3)c2C)cc1Cl`, the survival was inactive: 85%.
With `CCn1c(C(=O)N2CCC(C(=O)NCCc3ccc(C)cc3)CC2)cc2sccc21` the survival was inactive: 89%.
In the case of `Cc1ccc(Cn2ccnc2SCC(=O)NCc2ccccc2Cl)cc1`, the survival is reported as inactive: 74%.
With `N#Cc1c(C(F)(F)F)cc(-c2ccc(F)cc2)nc1SCC(=O)Nc1ccccc1` the survival was inactive: 78%.
For `Cc1ccccc1NC(=O)CSc1nc2ccccc2c2nc(CCn3cncc3C)nn12`, the survival was inactive: 74%.
For `CCOC(=O)c1ccc(N2C(=O)c3n[nH]c(-c4ccco4)c3C2c2cccc(OC)c2)cc1` (configuration not stated), the survival was inactive: 60%.
For `COC(=O)c1ccc2c(=O)n(CCCCCC(=O)NCCc3ccc(Cl)cc3)c(=O)[nH]c2c1`, the survival was inactive: 64%.
`COCCCNC(=O)c1ccc(-c2nc(CS(=O)(=O)c3ccc(C)cc3)c(C)o2)cc1` was tested, and the survival was inactive: 78%.
`Cc1oc(-c2ccc(C(=O)NCc3cccc(F)c3)cc2)nc1COc1ccccc1` was tested, and the survival was inactive: 112%.
For `CCOC(=O)C1CCCN(C(=O)c2ccc3c(c2)sc2nc(-c4ccc(CC)cc4)cn23)C1` (configuration not stated), the survival was inactive: 64%.
`Cc1ccc(CNC(=O)C(C)n2nc(C)n3c(cc4sccc43)c2=O)cc1` (configuration not stated) was tested, and the survival was inactive: 94%.
For `CCn1c(SCC(=O)c2ccc(Br)cc2)nnc1-c1ccncc1`, the survival was inactive: 104%.
For `CCOc1ccc(S(=O)(=O)NC(=O)N(CC)Cc2cc3ccccc3o2)cc1`, the survival was inactive: 110%.
